Reference: the supplement of paper PMC3334620
In all, about 33,000 sequences were measured (“E-score (-0.5 to 0.5)”: median about -0.041, highest 2% from about 0.37 on). The list shows a part of the results.

target: T1, Ecm22 (UniProt Q05958); assay: PBM E-score (8-mer binding enrichment) (E-score (-0.5 to 0.5)); higher = stronger / more preferred TF binding; most listed sequences are background and not binding sites; details: protein concentration: 200 nM; construct: GST-full length
T1 sequence: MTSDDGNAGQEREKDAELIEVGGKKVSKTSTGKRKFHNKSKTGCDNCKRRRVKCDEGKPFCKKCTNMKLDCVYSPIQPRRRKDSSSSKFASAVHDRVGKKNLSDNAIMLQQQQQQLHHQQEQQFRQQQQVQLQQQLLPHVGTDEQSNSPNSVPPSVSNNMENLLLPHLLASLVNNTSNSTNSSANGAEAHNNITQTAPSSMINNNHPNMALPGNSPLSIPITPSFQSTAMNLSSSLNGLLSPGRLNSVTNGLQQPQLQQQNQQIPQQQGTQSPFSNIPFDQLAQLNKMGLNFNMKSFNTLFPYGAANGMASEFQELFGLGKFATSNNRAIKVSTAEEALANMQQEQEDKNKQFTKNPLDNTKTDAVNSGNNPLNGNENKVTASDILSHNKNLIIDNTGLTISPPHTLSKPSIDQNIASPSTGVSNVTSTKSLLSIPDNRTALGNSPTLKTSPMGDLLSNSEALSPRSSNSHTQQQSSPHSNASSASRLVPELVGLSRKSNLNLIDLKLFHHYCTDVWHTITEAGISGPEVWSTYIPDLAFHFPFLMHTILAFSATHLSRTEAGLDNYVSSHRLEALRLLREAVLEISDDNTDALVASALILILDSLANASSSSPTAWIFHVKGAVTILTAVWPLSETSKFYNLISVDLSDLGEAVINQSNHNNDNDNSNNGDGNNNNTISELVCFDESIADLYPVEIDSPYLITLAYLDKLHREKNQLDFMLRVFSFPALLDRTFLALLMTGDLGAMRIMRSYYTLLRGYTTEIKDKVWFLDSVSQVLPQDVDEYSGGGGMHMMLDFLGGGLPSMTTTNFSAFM
Summary of the method: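 For each ungapped eight-base word taken together with its reverse complement, the Universal PBM Analysis Suite assigned an E-score. Binding data came from GST-tagged yeast transcription factors, applied at about 100-200 nM, on universal all-10-mer Agilent arrays made double-stranded by primer extension. Fluorescent anti-GST marked bound protein, and scans were normalised with masliner.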

Sequence	PBM E-score
GAGGCCTA	-0.0559
CTGAGCGA	0.267
AGGGCGCA	-0.247
ATGGAGGA	0.016
CAGGGTCA	-0.132
CACGTATC	0.132
CAGAGAGA	-0.046
GAAGGAGA	-0.0339
ATAACTGG	0.00042
AAATCCAA	-0.0614
CAAACCTG	-0.104
GGAGAACA	0.00184
CTAGCAAG	-0.186
CCGTTATA	0.111
ACACAGAG	-0.101
AGGACAAT	-0.239
GATAGCAA	-0.0305
ATGCATTA	0.0729
ACTGAGCC	0.0769
CTGTAGAA	-0.119
AGAGGAAA	-0.155
GAGTCAGA	-0.0459
ACTAACAG	-0.0226
AACTCCGA	-0.0408
AGTGTTAA	-0.0442

Sequence	PBM E-score
AAAAACGG	0.13
CCAATTAA	-0.11
CTGATGGA	-0.232
AGAGAGAA	-0.0389
AAAAGGCC	-0.0664
CAATAAAA	-0.225
CCGGCTGC	-0.0376
AATCTCTG	-0.106
AAAGCTTT	-0.0648
ATAGTCTC	0.0874
AAAACAGT	0.124
ACAGCCCG	-0.203
AGTACGGA	0.288
ACTCAGAC	-0.153
AGTCTGAA	-0.0981
ACGCCTTG	-0.142
GCGCAGTA	0.107
AGAACAGG	-0.163
CATAATCC	-0.0735
TTGTTAAA	-0.0863
GAATGGGA	-0.187
ATATCTTC	0.0742
CTTGCCCC	-0.15
GATCGTCC	-0.0538
ACTACGTC	-0.195

Sequence	PBM E-score
CACGGTTC	-0.175
CCGAATTA	0.124
AAGCACCC	0.0476
AAATATGA	-0.132
ATCGAACG	0.201
ACCTACCT	-0.0978
ATGACGCC	-0.11
ACATCTGC	-0.142
GGTGTCGA	0.0114
CTGAGGAC	-0.135
AACATATG	0.0682
AACTTAAT	-0.0568
ACATAGTA	0.172
AGGGTAAA	-0.181
CCAATCAA	-0.107
CTATGCGA	0.319
CCTTGAGA	-0.307
ACCAGATC	-0.185
ATAATCAT	0.105
CATGACCA	-0.141
CCCGTGCG	0.0157
GGCTAGCA	-0.37
ACAACGCG	0.147
GAGTGTAA	-0.208
GAGCTCGC	0.214

Sequence	PBM E-score
CGATCCTA	-0.061
AGGGAACC	0.00984
CCAGTATC	-0.00596
AAGGAAAA	0.0839
AGGGCAAT	-0.179
AAGGCGGC	-0.143
GCGCGACA	-0.00306
GCACCAAC	-0.0644
CAGAGCTC	-0.278
ACGGTTCA	-0.0308
GAGTTACC	-0.024
ACGGGCTC	0.124
GAACCGTC	0.0103
AGAGATCT	-0.0842
AGGCACAA	-0.303
GAGGTGCC	-0.048
GGGAATGA	-0.154
ATCTATTG	0.037
TACGACTA	0.438
GCCACTTA	-0.0338
AGACGCGG	-0.105
CCCCACTA	-0.232
CAGCATAC	-0.0447
CAACCTCA	-0.15
CGGAAGAA	0.089

Sequence	PBM E-score
GCCCTTGA	-0.202
CTACTGCC	-0.0288
TAGATGAA	-0.0499
CCCGCAAC	0.0108
CGGTGGCC	-0.232
ACGCTAGT	-0.0278
GAGGCTAA	-0.173
CGGCAGGA	0.0362
AAAAACTG	-0.116
AAGGTGAG	-0.0406
AAGCCTCT	-0.212
AAGCTGCA	-0.0356
CAAATTGA	-0.105
TACGAACA	0.452
TCTGTTAA	-0.0197
ACATGAGA	-0.0378
ATTAGAAC	0.0479
AAACCCCT	-0.265
AGCACGCA	-0.139
GGTAAGCA	-0.132
ACGGGTTG	0.189
ATGGGCGC	-0.111
CTACGCCA	-0.273
CCGAAGTC	0.0185
GCACACCC	-0.0607

Sequence	PBM E-score
ACTACGCT	-0.125
TGCATCCA	-0.156
TCAGGGCA	-0.0129
CTGTTATA	0.00278
ACGACGAG	0.38
AAGCTATT	-0.0496
GATTGTAA	0.12
AAACGGAG	0.29
CAACTTAG	-0.104
GATGTTCA	-0.228
ACAAGTTG	-0.257
GACGGTCC	-0.169
CCGGAGCG	0.19
GCCAACGA	0.0777
AAATTTAG	0.134
AACAAACA	-0.148
CAACGGGC	0.0786
CCTGCGTC	-0.186
GCACCGGC	-0.141
TACAAGTA	0.0403
ATCCTACG	0.0255
CGTGCCGA	0.169
AGGGCGTA	0.0999
CCCACTTC	0.0232
ATATCCAG	0.0146

Sequence	PBM E-score
GGGTACGA	0.491
ATCTACAT	-0.0415
ATAATCCA	-0.0422
ATAGGGAG	-0.184
AAACATAA	-0.0761
CCGGTCGA	-0.0232
TAAACATA	0.0845
ATTTGTTG	0.0446
ACTAGTCT	-0.282
AGGCAAAG	-0.172
AATGGAGA	-0.117
CGGTAGGA	-0.125
AGGGATAA	-0.0417
GACCCTGC	-0.0631
GCCGCCGA	-0.109
ATTCACGA	0.0492
GGGACAAC	0.0183
CGTTAATA	0.352
ATTAAGTA	0.103
CGGTTAGC	0.086
CAATCAGG	-0.199
TATGACAA	0.168
